# Measured values as given in the supplement of paper PMC4466236.
# In all, about 33,000 sequences were measured (“E-score (dimensionless, -0.5 to 0.5)”: median about -0.058, highest 2% from about 0.35 on). The list shows a part of the results.
# System: MvaT
# Experiment: PBM 8-mer E-score (mean of HK and ME arrays) (E-score (dimensionless, -0.5 to 0.5)); higher = stronger relative binding preference; most listed sequences are background and not binding sites
# Outline: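 Full-length P. aeruginosa MvaT, with glutathione S-transferase fused to its N-terminus (cloned into pTH6838 by isothermal assembly), was tested by protein binding microarray using a previously described protocol. Two universal double-stranded 60-mer arrays (ME and HK) were used, each with a constant 25-mer primer region and a variable 35-mer region covering all 8-mers. The rank-based 8-mer E-score (-0.5 to 0.5) is the mean of the two arrays, parsed with a custom Python script.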
row,Sequence,PBM 8-mer E-score
1,ACCAATCG,0.0603
2,AGAATGAC,0.0631
3,CACCCGGC,-0.0876
4,GTCCGGAC,0.0224
5,CTCGCCAG,-0.097
6,CTCTACCA,-0.0928
7,AGTAGTGA,0.21
8,AGAGGGAT,-0.168
9,AGGGAGGG,-0.265
10,GGCTATCA,-0.0897
11,CACTCGAA,-0.142
12,AAGAGTTG,-0.0631
13,AGTATGCA,0.192
14,GCGGACAA,0.0659
15,AAAAATAC,0.158
16,ACAAACTC,0.14
17,ACCTACGG,-0.191
18,CGGAAGAG,-0.217
19,GGATATGA,0.0688
20,GTGAACTA,0.111
21,CTCTCGAA,-0.0527
22,AAGTCGGA,-0.0793

row,Sequence,PBM 8-mer E-score
1,AATCAGAT,-0.0177
2,TGCCGCCA,-0.142
3,GAAGGAAC,-0.0975
4,GAATTTCC,0.0596
5,ATCAGGCC,-0.224
6,GAGCGCAC,-0.228
7,GTCATATA,0.282
8,CGTATACG,0.0857
9,AACTAGAC,0.102
10,AGCTCGAG,-0.0655
11,ATGTGACG,-0.101
12,ACCGTTCA,0.0636
13,ACGCAGAC,-0.0362
14,ATGGGTGG,-0.0367
15,ACTCACAT,0.0706
16,ATTATTCC,0.341
17,GTGCAAGA,0.082
18,GTTAACCA,0.122
19,CACAGTAA,0.133
20,GCCCGCCC,-0.143
21,CTTTAAGA,0.0625
22,GAGCGACA,-0.192

row,Sequence,PBM 8-mer E-score
1,GCTGAGCA,-0.285
2,GAAAGTGC,0.0954
3,CTGGTTGA,-0.124
4,GGAAGCTA,-0.176
5,AGTCCGGA,0.0416
6,AGTAGCGA,-0.0692
7,CCAATAAA,0.302
8,GACCTGTA,-0.0779
9,AAAATAAT,0.422
10,CGGTATGC,-0.141
11,AGACACAG,-0.141
12,CACCACGA,-0.0567
13,ACGGCATG,-0.217
14,CAGTATGA,0.188
15,CCCCGTCG,-0.33
16,AGACACAT,0.105
17,AAAAGAAC,0.145
18,CTCGATAA,-0.0933
19,ATAAAGGA,0.0948
20,GTAGCTGA,-0.0774
21,CGAAGGTA,-0.284
22,GCACAGAC,-0.17

row,Sequence,PBM 8-mer E-score
1,ACATTTGG,-0.00902
2,CCATGACG,-0.191
3,GCCGGAGA,-0.282
4,CTGCGCTA,-0.173
5,AGACGAGC,-0.183
6,GCCTCCAA,-0.166
7,AACAGGAG,-0.0255
8,CGCGTGAC,-0.161
9,GTGGTACA,-0.00692
10,TCGCGAAA,-0.0473
11,TACGAGAA,0.0165
12,CCGCATCG,-0.289
13,TGAAATAA,0.314
14,CTAAAATC,0.148
15,GCTTTTAA,0.267
16,CTGGTCTA,-0.126
17,GCCGACTA,-0.209
18,AGTAGAAT,0.163
19,ACCGCTTG,-0.106
20,CAACGGGA,0.0055
